# Results reported in the supplement of paper PMC8728848.
# Some of the results follow.
# B1: HPA (Helix pomatia), Q575S3 (protein)
# chain: MWAHLTGLLLICALSLSAAQRAQTGEIDCGSDSSWPKDPSDNPNRDNTREIVKHVTFSPQFCREPKVILSVTTLDAEHTKNLRYEARLKSVSPSGLSASCYSWHDGTIYRMKLSWLAVED
# Experiments:
# Assay in all cases: glycan array binding signal (z-score within array); higher = stronger binding
# Settings in all cases: glycan notation: IUPAC condensed, linker removed
# [1] = molecular target: Neu5Ac(a2-6)Gal(b1-4)GlcNAc(b1-6)[Gal(b1-3)]GalNAc
# Procedure, shortened: (§1)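 Arrays were curated from the Consortium for Functional Glycomics database, 3228 in total, and kept only where the protein sequence was available. Binding is expressed as a within-array Z-score. This score was averaged across arrays of the same protein sequence at different concentrations or buffers and across linkers, and negative values can be read as non-binding.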
# [2] = molecular target: Neu5Ac(a2-6)Gal(b1-4)GlcNAc6S
# Procedure, shortened: as §1
# Neu5Ac(a2-6)GalNAc = molecular target: Neu5Ac(a2-6)GalNAc
# Procedure, shortened: as §1
# [3] = molecular target: Neu5Ac(a2-6)GalNAc(b1-4)GlcNAc
# Procedure, shortened: as §1
# [4] = molecular target: Neu5Ac(a2-6)GalNAc(b1-4)GlcNAc6S
# Procedure, shortened: as §1
# [5] = molecular target: Neu5Ac(a2-6)GlcNAc(b1-4)GlcNAc
# Procedure, shortened: as §1
# [6] = molecular target: Neu5Ac(a2-6)GlcNAc(b1-4)GlcNAc(b1-4)GlcNAc
# Procedure, shortened: as §1
# Neu5Ac(a2-8)Neu5Ac = molecular target: Neu5Ac(a2-8)Neu5Ac
# Procedure, shortened: as §1
# [7] = molecular target: Neu5Ac(a2-8)Neu5Ac(a2-3)Gal(b1-3)GalNAc(b1-4)[Neu5Ac(a2-3)]Gal(b1-4)Glc
# Procedure, shortened: as §1
# [8] = molecular target: Neu5Ac(a2-8)Neu5Ac(a2-3)Gal(b1-3)GalNAc(b1-4)[Neu5Ac(a2-8)Neu5Ac(a2-3)]Gal(b1-4)Glc
# Procedure, shortened: as §1
# [9] = molecular target: Neu5Ac(a2-8)Neu5Ac(a2-3)Gal(b1-4)Glc
# Procedure, shortened: as §1
# [10] = molecular target: Neu5Ac(a2-8)Neu5Ac(a2-3)Gal(b1-4)GlcNAc
# Procedure, shortened: as §1
# [11] = molecular target: Neu5Ac(a2-8)Neu5Ac(a2-3)[Gal(b1-3)GalNAc(b1-4)]Gal(b1-4)Glc
# Procedure, shortened: as §1
# [12] = molecular target: Neu5Ac(a2-8)Neu5Ac(a2-3)[GalNAc(b1-4)]Gal(b1-4)Glc
# Procedure, shortened: as §1
# [13] = molecular target: Neu5Ac(a2-8)Neu5Ac(a2-8)Neu5Ac
# Procedure, shortened: as §1
# [14] = molecular target: Neu5Ac(a2-8)Neu5Ac(a2-8)Neu5Ac(a2-3)Gal(b1-4)Glc
# Procedure, shortened: as §1
# [15] = molecular target: Neu5Ac(a2-8)Neu5Ac(a2-8)Neu5Ac(a2-3)[Gal(b1-3)GalNAc(b1-4)]Gal(b1-4)Glc
# Procedure, shortened: as §1
# [16] = molecular target: Neu5Ac(a2-8)Neu5Ac(a2-8)Neu5Ac(a2-3)[GalNAc(b1-4)]Gal(b1-4)Glc
# Procedure, shortened: as §1
# [17] = molecular target: Neu5Ac(a2-8)Neu5Ac(a2-8)Neu5Ac(a2-8)Neu5Ac(a2-3)[GalNAc(b1-4)]Gal(b1-4)Glc
# Procedure, shortened: as §1
# [18] = molecular target: Neu5Ac(a2-8)Neu5Gc(a2-3)Gal(b1-4)GlcNAc
# Procedure, shortened: as §1
# [19] = molecular target: Neu5Ac(b2-6)Gal(b1-4)GlcNAc
# Procedure, shortened: as §1
# Neu5Ac(b2-6)GalNAc = molecular target: Neu5Ac(b2-6)GalNAc
# Procedure, shortened: as §1
# [20] = molecular target: Neu5Ac9Ac(a2-3)Gal(b1-3)GlcNAc
# Procedure, shortened: as §1
# [21] = molecular target: Neu5Ac9Ac(a2-3)Gal(b1-4)GlcNAc
# Procedure, shortened: as §1
# [22] = molecular target: Neu5Ac9Ac(a2-6)Gal(b1-4)GlcNAc
# Procedure, shortened: as §1
# [23] = molecular target: Neu5Gc(a2-3)Gal(b1-3)GlcNAc
# Procedure, shortened: as §1
# [24] = molecular target: Neu5Gc(a2-3)Gal(b1-3)[Fuc(a1-4)]GlcNAc
# Procedure, shortened: as §1
# Neu5Gc(a2-3)Gal(b1-4)Glc = molecular target: Neu5Gc(a2-3)Gal(b1-4)Glc
# Procedure, shortened: as §1
# [25] = molecular target: Neu5Gc(a2-3)Gal(b1-4)GlcNAc
# Procedure, shortened: as §1
# [26] = molecular target: Neu5Gc(a2-3)Gal(b1-4)GlcNAc(b1-3)Gal(b1-4)GlcNAc(b1-2)Man(a1-3)[Neu5Gc(a2-3)Gal(b1-4)GlcNAc(b1-3)Gal(b1-4)GlcNAc(b1-2)Man(a1-6)]Man(b1-4)GlcNAc(b1-4)GlcNAc
# Procedure, shortened: as §1
# [27] = molecular target: Neu5Gc(a2-3)Gal(b1-4)[Fuc(a1-3)]GlcNAc
# Procedure, shortened: as §1
# [28] = molecular target: Neu5Gc(a2-6)Gal(b1-4)GlcNAc
# Procedure, shortened: as §1
# Neu5Gc(a2-6)GalNAc = molecular target: Neu5Gc(a2-6)GalNAc
# Procedure, shortened: as §1
# [29] = molecular target: Neu5Gc(a2-8)Neu5Ac(a2-3)Gal(b1-4)GlcNAc
# Procedure, shortened: as §1
# [30] = molecular target: Neu5Gc(a2-8)Neu5Gc(a2-3)Gal(b1-4)GlcNAc
# Procedure, shortened: as §1
# [31] = molecular target: Neu5Gc(a2-8)Neu5Gc(a2-3)Gal(b1-4)GlcNAc(b1-3)Gal(b1-4)GlcNAc
# Procedure, shortened: as §1
# [32] = molecular target: Neu5Gc(a2-8)Neu5Gc(a2-6)Gal(b1-4)GlcNAc
# Procedure, shortened: as §1
# [33] = molecular target: Neu5Gc(b2-6)Gal(b1-4)GlcNAc
# Procedure, shortened: as §1
binder,measurement,setting,value
B1,glycan array binding signal (z-score),[1],-0.257
same,glycan array binding signal (z-score),[2],-0.261
same,glycan array binding signal (z-score),Neu5Ac(a2-6)GalNAc,-0.271
same,glycan array binding signal (z-score),[3],-0.273
same,glycan array binding signal (z-score),[4],-0.254
same,glycan array binding signal (z-score),[5],-0.265
same,glycan array binding signal (z-score),[6],-0.267
same,glycan array binding signal (z-score),Neu5Ac(a2-8)Neu5Ac,-0.262
same,glycan array binding signal (z-score),[7],-0.262
same,glycan array binding signal (z-score),[8],-0.255
same,glycan array binding signal (z-score),[9],-0.264
same,glycan array binding signal (z-score),[10],-0.258
same,glycan array binding signal (z-score),[11],-0.245
same,glycan array binding signal (z-score),[12],0.122
same,glycan array binding signal (z-score),[13],-0.27
same,glycan array binding signal (z-score),[14],-0.265
same,glycan array binding signal (z-score),[15],-0.246
same,glycan array binding signal (z-score),[16],0.074
same,glycan array binding signal (z-score),[17],0.06
same,glycan array binding signal (z-score),[18],-0.264
same,glycan array binding signal (z-score),[19],-0.26
same,glycan array binding signal (z-score),Neu5Ac(b2-6)GalNAc,-0.269
same,glycan array binding signal (z-score),[20],-0.272
same,glycan array binding signal (z-score),[21],-0.24
same,glycan array binding signal (z-score),[22],-0.274
same,glycan array binding signal (z-score),[23],-0.269
same,glycan array binding signal (z-score),[24],-0.27
same,glycan array binding signal (z-score),Neu5Gc(a2-3)Gal(b1-4)Glc,-0.255
same,glycan array binding signal (z-score),[25],-0.268
same,glycan array binding signal (z-score),[26],-0.245
same,glycan array binding signal (z-score),[27],-0.264
same,glycan array binding signal (z-score),[28],-0.264
same,glycan array binding signal (z-score),Neu5Gc(a2-6)GalNAc,-0.268
same,glycan array binding signal (z-score),[29],-0.259
same,glycan array binding signal (z-score),[30],-0.26
same,glycan array binding signal (z-score),[31],-0.266
same,glycan array binding signal (z-score),[32],-0.246
same,glycan array binding signal (z-score),[33],-0.266
